Experimental findings from paper PMC6919601, “Identification of Plasmodium dipeptidyl aminopeptidase allosteric inhibitors by high throughput screening” (PLoS ONE, 2019) are described below.

“And” between values parts separate entries of the source, which are not always exact repeats. Equal entries are not always repeated. The whole screen tested about 110,000 compounds, of which about 230 (0.21%) showed an effect of 50% or more. The list shows a part of the results.
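Note: 30 min substrate incubation versus DMSO and 10 µM JCP410 controls.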

DPAP1, sequence (Q8IIJ9 whole entry, looked up): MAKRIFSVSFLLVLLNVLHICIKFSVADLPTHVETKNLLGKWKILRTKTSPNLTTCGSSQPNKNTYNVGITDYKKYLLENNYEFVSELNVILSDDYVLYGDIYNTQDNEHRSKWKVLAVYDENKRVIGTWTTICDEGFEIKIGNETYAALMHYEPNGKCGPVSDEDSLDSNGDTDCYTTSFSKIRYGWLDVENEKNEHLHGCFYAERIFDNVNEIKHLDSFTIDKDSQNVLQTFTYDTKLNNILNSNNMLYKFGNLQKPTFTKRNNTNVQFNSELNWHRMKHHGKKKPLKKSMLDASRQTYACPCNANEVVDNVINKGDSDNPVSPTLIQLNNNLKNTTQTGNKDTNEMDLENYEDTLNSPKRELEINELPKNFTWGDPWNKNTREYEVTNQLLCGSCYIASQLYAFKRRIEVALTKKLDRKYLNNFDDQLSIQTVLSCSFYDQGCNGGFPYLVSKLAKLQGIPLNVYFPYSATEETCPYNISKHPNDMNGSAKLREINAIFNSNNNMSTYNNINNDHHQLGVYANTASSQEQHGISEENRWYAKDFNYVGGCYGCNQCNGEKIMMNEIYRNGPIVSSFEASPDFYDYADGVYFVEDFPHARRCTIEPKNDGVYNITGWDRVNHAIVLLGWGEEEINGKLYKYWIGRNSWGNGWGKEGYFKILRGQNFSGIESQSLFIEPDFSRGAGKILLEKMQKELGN

This assay concerns the target DPAP1 (Plasmodium falciparum, UniProt Q8IIJ9). Nature of the assay: primary screen, percent inhibition; read by cleavage of a fluorogenic dipeptide substrate; higher = more effect of the substance. Also noted: species or system P. falciparum D10 trophozoite lysates; single well.
On to `O=C1C2C3C=CC(CC3)C2C(=O)N1c1cccc(Br)c1` (stereo not drawn), for which the “% Inhibition @ 10 uM” value is on record as -5.13%.
Next, `Cc1c(C(=O)NCCN(C)C)oc2ccc3c(c12)C(=O)CC(C)(c1ccc(Cl)cc1)O3` (stereo not drawn): 1.22%; `Cc1ccccc1S(=O)(=O)NC(=O)NS(=O)(=O)c1ccccc1Cl`: 0.716%.
Next, `N/C(=N\N=C\c1ccccc1O)c1nonc1N`: 1.91%; `CC1CC2(CC(C)N(C)CC2C)Nc2ccccc21` (stereo not drawn): 5.48%.
For `Nc1cc(-c2ccccc2)nc2cc(-c3ccccc3)nn12`, the “% Inhibition @ 10 uM” value is 2.65%.
`Cc1ccc(S(=O)(=O)/N=C2/C=C(Sc3nc[nH]n3)C(=O)c3ccccc32)cc1`: the “% Inhibition @ 10 uM” value was 1.74%.
Next, `COc1ccc(CN2C(=O)c3cccnc3C2=O)cc1S(=O)(=O)NCCCc1ccccc1`: -6.14%; `CCOC(=O)C1=C(C)OC(N)=C(C#N)C1c1ccc(F)c(Br)c1` (stereo not drawn): -8.76%; `CC1(C)CC(=O)CC(O)(C(F)(F)F)O1` (stereo not drawn): -0.216%.
Then `COc1ccc(NC(=O)c2c(NC(=O)CN3CCCC(C)C3)sc3c2CCC3)c(OC)c1` (stereo not drawn), with 7.31%.
Then `CCOC(=O)N1CCC(NCCN2CCCCC2)CC1`, with -4.75%; and `N#CC1=C(N)Oc2c(O)nc(S)nc2C1c1cccc([N+](=O)[O-])c1` (stereo not drawn), with -6.82%; and `COCCNC(=O)C1c2cc(OC)c(OC)cc2C(=O)N(C)C1c1cccnc1` (stereo not drawn), with -2.95%.
On to `COCc1cc(C2C(C#N)=C(N)Oc3[nH]nc(C)c32)ccc1OC` (stereo not drawn), for which the “% Inhibition @ 10 uM” value is -5.48%.
Next, `O=C(CSCc1ccccc1Cl)NCCc1ccc(Cl)cc1`: 2.9%; `COc1cc(C=C2C(=O)OC(C)(c3ccccc3)OC2=O)ccc1OCc1cccc(C(=O)O)c1` (stereo not drawn): 3.6%; `COc1ccc(C2=CC(c3sccc3C)n3nnnc3N2)cc1` (stereo not drawn): 4.86%.
On to `CCOC(=O)c1oc2ccc3c(c2c1C)C(=O)CC1(CCN(C(=O)OCC)CC1)O3`, for which the “% Inhibition @ 10 uM” value is recorded as -1.75%.
On to `O=C(c1cnn2c(C(F)(F)F)cc(-c3ccco3)nc12)N1CCOCC1`, for which the “% Inhibition @ 10 uM” value was found to be 1.65%.
Take `CC(C)c1ccc(N(CC(=O)N2CCCCC2)S(=O)(=O)c2ccccc2)cc1`: the “% Inhibition @ 10 uM” value is listed as -1.12%.
Then `CC1(C)CC2=Nc3[nH]nc(-c4ccccc4)c3C(c3ccccc3)C2=C(O)C1` (stereo not drawn), with 4.17%; and `O=C(CSc1nnc(-c2cccnc2)o1)NCc1ccccc1`, with 0.029%.
Consider `COCCCNC(=O)Cn1ncc2ccc(Cl)cc21`, for which the “% Inhibition @ 10 uM” value was -2.88%.
Turning to `CC(=O)Nc1nonc1-c1nc2ccccc2n1CCC#N`, the “% Inhibition @ 10 uM” value is given as 3.46%.
Next, `CN(C)CCCN1C(=O)CSC1c1ccc(Cl)c(Cl)c1` (stereo not drawn): -7.54%; `Nc1nnc(-c2ccc(O)cc2)s1`: 6.63%.
Next, `NC(=O)C1CCN(C(=O)Cn2cccc2C(=O)c2ccccc2)CC1`: 2.76%; `NC(=O)C1CCN(C2CCC(c3ccccc3)CC2)CC1` (stereo not drawn): 1.88%; `CCOc1ccccc1NC1=C(Cl)C(=O)N(c2ccccc2)C1=O`: 2.38%.
Then `Oc1cc(C(F)(F)F)nc(-c2ccccc2)n1`, with 0.0538% and -1.97%; and `O=C(NC1CCN(Cc2ccccc2)CC1)c1cc2ccc3cccnc3c2[nH]1`, with 5.73%; and `Cc1ccc(-c2cc(-c3ccccc3)nc(N3CCOCC3)n2)cc1`, with -0.239%.
Consider `N#Cc1ccccc1Cn1c(=O)n(CCC(=O)NCc2ccc3c(c2)OCO3)c(=O)c2sccc21`, for which the “% Inhibition @ 10 uM” value is given as -3.12%.
Then `O=C1CCCC(=O)C1=CNc1ccc(NC=C2C(=O)CCCC2=O)cc1`, with -4.68%.
Regarding `CN(C)CCNC(=O)c1ccc(Cn2c(SCc3ccccc3)nc3cccnc32)cc1`, the “% Inhibition @ 10 uM” value is 3.95%.
For `NS(=O)(=O)c1ccc(NC(=O)c2ccccc2Br)cc1`, the “% Inhibition @ 10 uM” value was -2.81%.
Then `O=c1oc2ccccc2c2c1C(c1ccccc1)c1c(c3ccccc3oc1=O)O2`, with 12.5%; and `CC(C)C[C@H](NC(=O)OCc1ccccc1)C(=O)NC(C#N)c1ccc(Cl)s1` (stereo partly drawn), with 4.63%.
In the case of `COc1ccccc1C(=O)Nc1nnc(S(=O)(=O)N(C)Cc2ccc(F)cc2)s1`, the “% Inhibition @ 10 uM” value was -2.68%.
With `C=CCOc1ccc(C2c3c(oc4ccccc4c3=O)C(=O)N2CCCN2CCOCC2)cc1OC` (stereo not drawn), the “% Inhibition @ 10 uM” value was 0.628%.
For `COC(=O)Nc1ccc(S(=O)(=O)NCCc2c[nH]c3ccc(OC)cc23)cc1`, the “% Inhibition @ 10 uM” value is 6.43%.
Then `COc1ccc(C2CC(=O)N(C)C3=C2C(=O)CC(C)(C)C3)cc1OC` (stereo not drawn), with 2.79%; and `Cc1cc(C)c(C(=O)Nc2ccccc2)s1`, with 2.76%; and `Cc1ccc(C)n1-c1ccc(Cl)c(C(=O)O)c1`, with 7.42%.
In the case of `COc1ccc(-c2cc(-c3ccc(C)cc3)nc(N3CCNCC3)n2)cc1OC`, the “% Inhibition @ 10 uM” value came out at 1.88%.
As for `c1cncc(C(c2c[nH]c3ccccc23)c2c[nH]c3ccccc23)c1`, the “% Inhibition @ 10 uM” value amounted to 92.4%.
`CC1CCCCC1NC(=O)CCn1ccc2cc(S(=O)(=O)N3CCCC3)ccc21` (stereo not drawn): the “% Inhibition @ 10 uM” value amounted to 4.32%.
Then `N=C(NOC(=O)C1CCCCC1)c1ccccn1`, with -7.45%; and `O=C(Nc1ccc2c3c1C1C=CCC1CN3CC1CC=CC21)c1ccccc1` (stereo not drawn), with 2.4%; and `Cc1sc(NC(=O)C2CCC2)c(C#N)c1-c1ccccc1`, with 2.36%.
Then `Cc1cc(C)c(C(=O)C2=C(O)C(=O)N(c3ccccn3)C2c2cccnc2)c(C)c1` (stereo not drawn), with -5.69%; and `O=C(CN1C(=O)c2ccccc2Sc2ncccc21)N1CCC(N2CCCCC2)CC1`, with -12.2%.
Then `C=C1Cn2c(nc3c2c(=O)n(C)c(=O)n3C)S1`, with -1.92%; and `Cc1ccccc1Cn1nnc(-c2ccc(F)cc2)n1`, with -2.15%; and `COc1ccc(-n2cccc2/C=C2\C(=N)N3N=CSC3=NC2=O)cc1Cl`, with 0.208%.
For `CCCN1CCC(N2CCN(c3ccccc3)CC2)CC1`, the “% Inhibition @ 10 uM” value is reported as -3.5%.
Then `CC(C)C[C@H](NC(=O)c1ccc(CNC(=O)OC(C)(C)C)cc1)C(=O)N[C@@H](CCc1ccccc1)C(=O)COCc1ccccc1`, with -3.97%; and `CC(C)(Oc1ccc(Cl)cc1)C(=O)N1CCN(c2ccccn2)CC1`, with -2.65%; and `N#CCNC(=O)C1(NC(=O)OCc2ccccc2)CCCCCC1`, with -0.207%.
Next, `CCOc1ccc(S(=O)(=O)/N=C2\C=CC(=O)c3ccccc32)cc1`: 9.56%.
Next, `CS(=O)(=O)N(CC(=O)NCc1ccccc1)c1cccc(Cl)c1`: -0.185%; `COc1ccc(Cn2c(C(=O)O)c(CNCC3CCCO3)c3ccc(C)cc32)cc1` (stereo not drawn): -3.88%; `COc1ccc2c(c1)c(C(C)=O)c(C)n2-c1cccc(C(F)(F)F)c1`: 5.17%.
Regarding `Cc1ccc(NC(=O)Cn2cnc3ccccc3c2=O)cc1`, the “% Inhibition @ 10 uM” value was 2.22%.
Then `CCOC(=O)C1CCCN(C2CCN(C)CC2)C1` (stereo not drawn), with -8.8%.
Then `COc1ccc(OC)c(-c2c(C)sc(N)[n+]2C)c1`, with 1.88%.
Then `CC(=O)N/C(=C\c1ccccc1)C(=O)Nc1ccc(O)cc1`, with 0.0345%; and `Clc1ccc(CN2CCN(c3ccccc3Cl)CC2)cc1Cl`, with -1.92%.
With `CCC(NC(=O)Nc1cccc2ccccc12)(C(F)(F)F)C(F)(F)F`, the “% Inhibition @ 10 uM” value is listed as 4.15%.
Then `COc1ccc(C)cc1NC(=O)COc1ccc(C)c(C)c1`, with 22.7%.
Then `Cc1cc2c(cc3c(=O)n(CC(=O)N4CCc5ccccc5C4)ncn32)s1`, with 3.29%.
Consider `CCC(C)(C)C1CCc2c(sc(NC(=O)C3CCCCC3C(=O)O)c2C(N)=O)C1` (stereo not drawn), for which the “% Inhibition @ 10 uM” value was 5.63%.
For `O=C(CNS(=O)(=O)c1ccc(Br)s1)N1CCN(C2CCCCC2)CC1`, the “% Inhibition @ 10 uM” value was 0.723%.
Take `CC(C)c1nnc(NC(=O)c2nc(S(=O)(=O)Cc3ccc(F)cc3)ncc2Cl)s1`: the “% Inhibition @ 10 uM” value is 0.758%.
Then `O=C1CC(N2CCCCCC2)C(=O)N1c1ccc(F)cc1` (stereo not drawn), with 0.361%; and `CC1CCN(C(=O)COCc2cc(-c3ccc(F)cc3)on2)CC1`, with -6.13%.
In the case of `COCCCNC(=O)CS(=O)Cc1nc(-c2cccc(Cl)c2)oc1C` (stereo not drawn), the “% Inhibition @ 10 uM” value stood at 2.16%.
Then `COc1cccc(C2C(C#N)=C(N)Oc3[nH]nc(-c4ccccc4F)c32)c1` (stereo not drawn), with -7.55%; and `CC[n+]1c(/C=C/c2ccc3c(c2)OCO3)sc2ccc(OC)cc21`, with 2.04%.
Next, `COc1ccccc1NC(=O)c1ccccc1NC(=O)CCc1ccccc1`: -1.84%.
In the case of `CCC1CCCCN1C(=O)CSc1nc(O)c2cnn(-c3ccc(C)cc3)c2n1` (stereo not drawn), the “% Inhibition @ 10 uM” value stood at 6.63%.
Then `CC1CCCC(NC(=O)c2cc(S(=O)(=O)N3CCOCC3)ccc2F)C1C` (stereo not drawn), with -3.78%.
In the case of `Cc1noc(/C=C/c2ccco2)c1S(=O)(=O)N1CCC(C(=O)N2CCN(C)CC2)CC1`, the “% Inhibition @ 10 uM” value was 2.14%.
With `Oc1ccc(C2Nc3cc(Cl)c(Cl)cc3N2)c(O)c1`, the “% Inhibition @ 10 uM” value is recorded as -9.83%.
Then `N#C/C(=C\c1ccc(N2CCOCC2)cc1)c1nc2ccccc2[nH]1`, with -2.18%; and `COc1c(C(=O)N[C@@H](CC(C)C)C(=O)NCC#N)csc1Br`, with -8.26%; and `COc1ccc(C2NC(=O)c3cnn(-c4ccccc4)c3N2)cc1COc1ccccc1C` (stereo not drawn), with -3.13%.
Next, `CCNc1nc(NC(C)C)nc(Oc2ccc(OCCOc3ccccc3)nn2)n1`: -0.178%; `COC(=O)C1=C(C)N(C)C(C)=C(C(=O)OC)C1c1ccccc1C(F)(F)F`: -2.39%.
Then `CCCOc1ccc(C2C(C#N)=C(C)N=C3CC(C)(C)CC(O)=C32)cc1OC` (stereo not drawn), with -1.99%.
In the case of `CCOC(=O)N1CCC2(CC1)OC(=O)C(C)=C2C(=O)NCCOC`, the “% Inhibition @ 10 uM” value is reported as 1.34%.
For the compound `CCOc1cc(C2CC(=O)NC3=C2C(=O)CCC3)ccc1OC(C)C` (stereo not drawn), the “% Inhibition @ 10 uM” value is 3.11%.
In the case of `CC1(C)Cc2c(sc3nc(SCC(=O)c4ccccc4)nc(N)c23)CO1`, the “% Inhibition @ 10 uM” value is reported as -6.39%.
Regarding `CC1CCC(NC2CCN(Cc3ccccc3)CC2)C1` (stereo not drawn), the “% Inhibition @ 10 uM” value is on record as 3.35%.
Then `O=C(c1ccccc1)c1ccccc1C(=O)N1CCCC1`, with 0.316%; and `CCOc1ccccc1CN(C)C1CCN(C)CC1`, with 4.66%.
Then `OCCOCCN1CCN(C2C3CC4CC(C3)CC2C4)CC1` (stereo not drawn), with -0.0908%; and `Cc1ccc(S(=O)(=O)N(CC(=O)N2CCCCC2)c2cccc(C)c2)cc1`, with -3.58%.
